According to article PMC4336329 (PLoS ONE, 2015):
About 14,000 (4.5%) of roughly 310,000 compounds showed an effect of 50% or more. Effects have a minus sign here. Some of the results follow.

biological target: human ether-à-go-go-related gene (hERG) potassium channel (human, UniProt Q12809); test: primary screen, population patch clamp on CHO cells stably expressing hERG
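Further: peak tail current of the secondary pulse compared with the same well before compound.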

human ether-à-go-go-related gene (hERG) potassium channel, sequence (Q12809 whole entry, looked up): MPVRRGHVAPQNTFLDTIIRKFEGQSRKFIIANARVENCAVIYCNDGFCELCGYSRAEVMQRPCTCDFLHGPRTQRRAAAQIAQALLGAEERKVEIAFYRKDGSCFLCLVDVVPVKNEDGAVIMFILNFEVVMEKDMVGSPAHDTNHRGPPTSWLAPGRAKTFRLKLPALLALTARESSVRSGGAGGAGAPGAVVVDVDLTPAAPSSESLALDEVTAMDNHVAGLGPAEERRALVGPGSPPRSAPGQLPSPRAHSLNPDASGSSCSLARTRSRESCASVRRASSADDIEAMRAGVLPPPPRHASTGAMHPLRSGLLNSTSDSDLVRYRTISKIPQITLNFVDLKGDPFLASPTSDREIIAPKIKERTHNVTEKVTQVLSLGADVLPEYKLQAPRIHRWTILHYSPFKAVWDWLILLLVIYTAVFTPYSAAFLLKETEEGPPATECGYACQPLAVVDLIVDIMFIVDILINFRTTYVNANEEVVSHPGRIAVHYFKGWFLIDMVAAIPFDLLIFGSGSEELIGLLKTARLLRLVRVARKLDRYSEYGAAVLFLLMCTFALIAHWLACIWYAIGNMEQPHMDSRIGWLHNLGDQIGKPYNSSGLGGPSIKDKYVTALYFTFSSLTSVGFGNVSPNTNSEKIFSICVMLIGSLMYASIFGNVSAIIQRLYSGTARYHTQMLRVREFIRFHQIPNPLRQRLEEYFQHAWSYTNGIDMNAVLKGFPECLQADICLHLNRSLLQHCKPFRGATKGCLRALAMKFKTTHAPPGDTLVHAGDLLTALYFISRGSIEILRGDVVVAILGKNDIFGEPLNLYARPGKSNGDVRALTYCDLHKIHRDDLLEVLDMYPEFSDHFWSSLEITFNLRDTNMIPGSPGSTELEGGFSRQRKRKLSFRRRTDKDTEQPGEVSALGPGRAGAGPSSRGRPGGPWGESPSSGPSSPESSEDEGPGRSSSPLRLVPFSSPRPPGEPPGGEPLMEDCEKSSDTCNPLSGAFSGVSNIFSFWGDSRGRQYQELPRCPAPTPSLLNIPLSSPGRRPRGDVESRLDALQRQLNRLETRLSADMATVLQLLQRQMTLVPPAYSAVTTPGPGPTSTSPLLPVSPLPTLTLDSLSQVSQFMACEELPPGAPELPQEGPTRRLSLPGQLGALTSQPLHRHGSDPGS

Structure (SMILES) | hERG current change (%, negative = inhibition) at 10uM
COc1ccccc1NC(=O)C(C)OC(=O)COc1cccc2c1OC(C)(C)C2 (stereo not drawn) | -8.46%
CCOC(=O)N1CCC(NC(=O)c2cc(C(=O)NCc3cccc(Cl)c3)ccc2CO)CC1 | 0.828%
CC(=O)c1cc(OC(=O)N2CCOCC2)ccc1OC(=O)N1CCOCC1 | -3.71%
CN(C)CCCn1c(SCC(=O)N2CC(=O)Nc3ccccc32)nc2ccccc2c1=O | -17.6%
Cc1cccc(OC(=O)c2cccnc2)c1 | 15.1%
Cc1ccc(S(=O)(=O)N2CCc3ccccc3C2CC(=O)O)cc1 (stereo not drawn) | 1.68%
CC(C)c1ccc(C(=O)NNC(=O)C2CC=CCC2C(=O)O)cc1 (stereo not drawn) | -2.41%
CCc1nc2oc3ccccc3c(=O)c2cc1C(=O)OC | 11.3%
O=C(CSc1ccccn1)Nc1cccc(NC(=O)CSc2ccccn2)n1 | -11.9%
Cl.N#CCCNCC1(c2ccccc2)CCCC1 | 12.7%
COc1cc(NC(=O)c2sc(C)nc2C)c(OC)cc1NC(=O)c1ccccc1 | -10.5%
O=C(Nc1nc(-c2ccccc2)cs1)c1ccc2c(c1)S(=O)(=O)c1ccccc1C2=O | 25.9%
CNC(=S)N1CCC(NC(=O)C23CC4CC(CC(C4)C2)C3)CC1 | 20.9%
O=C1CC(C(=O)Nc2ccccc2)S/C(=N\N=C\c2ccco2)N1 (stereo not drawn) | -10%
COc1ccc(NC(=O)c2c(NC(=O)CCC(=O)O)sc(-c3ccccc3)c2C)cc1 | 5.27%
COCC(C)n1c(SCC(=O)Nc2sccc2C(N)=O)nc2ccccc2c1=O (stereo not drawn) | -16.5%
O=c1[nH]c(CN2CCN(c3ccc(F)cc3)CC2)nc2ccccc12 | -15.1%
C#CCNc1c(C)c(C)nc2ncnn12 | 3.06%
FC(F)Sc1ccc(Nc2ncnc3nc[nH]c23)cc1 | 1.42%
O=[N+]([O-])c1cc(S(=O)(=O)/N=C(/c2ccccc2)N2CCOCC2)ccc1Cl | -23.9%
CCOc1ccc2[nH]c3c(N4CCN(c5ccccn5)CC4)ncnc3c2c1 | -59.4%
Cc1ccc(Nc2nnc(SCC(=O)Nc3ccccc3[N+](=O)[O-])s2)cc1 | 7.88%
O=C(Nc1cc(C(F)(F)F)ccc1Cl)c1cccnc1 | -0.0865%
Cc1nc(Nc2ccc(F)cc2)nc(Nc2ccc(F)cc2)c1[N+](=O)[O-] | 2.27%
